Among the data in PMC4214795 are binding values, retold here.

Chains of the proteins cited; added tags and fusions are not shown.
UniProt P53350: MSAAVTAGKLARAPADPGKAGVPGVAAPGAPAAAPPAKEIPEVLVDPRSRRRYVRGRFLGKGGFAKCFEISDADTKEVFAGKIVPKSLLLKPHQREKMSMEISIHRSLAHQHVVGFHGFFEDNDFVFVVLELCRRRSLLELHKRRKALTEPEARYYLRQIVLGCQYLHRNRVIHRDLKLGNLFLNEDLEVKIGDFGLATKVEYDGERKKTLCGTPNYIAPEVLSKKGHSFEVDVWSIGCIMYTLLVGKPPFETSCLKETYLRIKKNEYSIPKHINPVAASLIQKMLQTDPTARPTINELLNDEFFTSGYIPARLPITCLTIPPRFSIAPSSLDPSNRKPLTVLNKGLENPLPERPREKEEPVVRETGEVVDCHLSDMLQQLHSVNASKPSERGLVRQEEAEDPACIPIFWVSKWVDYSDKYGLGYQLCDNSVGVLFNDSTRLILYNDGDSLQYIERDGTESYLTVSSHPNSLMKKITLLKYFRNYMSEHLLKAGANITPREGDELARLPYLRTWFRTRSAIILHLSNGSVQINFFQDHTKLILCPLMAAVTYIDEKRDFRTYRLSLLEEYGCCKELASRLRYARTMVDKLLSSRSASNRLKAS

Results are given in words; binding and its absence hold for the method and conditions named. For some of these results: In cells and extracts the contact can be indirect. Sequences can lack the tags named with a protein. Some results given as binding are weak or reduced against the parent protein; the word gives no strength.

Assay [1] deals with Human polo-like kinase 1 (Plk1) (human) (UniProt P53350). Nature of the assay: co-IP; HEK293 cells transfected with tagged ESCRT proteins; 1 mg lysate with 12.8 ug anti-Plk1 antibody overnight at 4 C, Protein A sepharose; washes with 100 mM KCl and with 250 mM NaCl, 1% Triton X-100; immunoblot with anti-GFP or anti-myc. (Immunoblotting shows a protein as a band on a membrane.)
Assay [2] has as its target T1, Ark1p (wild-type), LexA DNA binding domain fusion (S. pombe) (UniProt O59790).
T1 sequence: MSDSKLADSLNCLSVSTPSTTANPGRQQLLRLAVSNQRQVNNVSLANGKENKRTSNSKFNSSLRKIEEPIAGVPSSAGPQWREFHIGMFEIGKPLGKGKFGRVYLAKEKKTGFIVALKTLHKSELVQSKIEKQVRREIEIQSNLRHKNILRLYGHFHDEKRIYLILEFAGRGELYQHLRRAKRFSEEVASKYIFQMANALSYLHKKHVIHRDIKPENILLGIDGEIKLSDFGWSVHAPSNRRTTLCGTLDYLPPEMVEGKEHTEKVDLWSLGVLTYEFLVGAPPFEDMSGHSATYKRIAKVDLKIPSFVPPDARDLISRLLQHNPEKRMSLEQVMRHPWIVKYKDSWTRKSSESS
Nature of the assay: two-hybrid; bait fused to LexA DNA binding domain (Plo1p or Ark1p), prey ESCRT proteins fused to GAL4 transcription activation domain; budding yeast with LEXA-galactosidase readout; three days on selective medium, X-gal overlay; qualitative.

In assay [3] the target is T2, Plo1p (wild-type), LexA DNA binding domain fusion (S. pombe) (UniProt P50528).
T2 sequence: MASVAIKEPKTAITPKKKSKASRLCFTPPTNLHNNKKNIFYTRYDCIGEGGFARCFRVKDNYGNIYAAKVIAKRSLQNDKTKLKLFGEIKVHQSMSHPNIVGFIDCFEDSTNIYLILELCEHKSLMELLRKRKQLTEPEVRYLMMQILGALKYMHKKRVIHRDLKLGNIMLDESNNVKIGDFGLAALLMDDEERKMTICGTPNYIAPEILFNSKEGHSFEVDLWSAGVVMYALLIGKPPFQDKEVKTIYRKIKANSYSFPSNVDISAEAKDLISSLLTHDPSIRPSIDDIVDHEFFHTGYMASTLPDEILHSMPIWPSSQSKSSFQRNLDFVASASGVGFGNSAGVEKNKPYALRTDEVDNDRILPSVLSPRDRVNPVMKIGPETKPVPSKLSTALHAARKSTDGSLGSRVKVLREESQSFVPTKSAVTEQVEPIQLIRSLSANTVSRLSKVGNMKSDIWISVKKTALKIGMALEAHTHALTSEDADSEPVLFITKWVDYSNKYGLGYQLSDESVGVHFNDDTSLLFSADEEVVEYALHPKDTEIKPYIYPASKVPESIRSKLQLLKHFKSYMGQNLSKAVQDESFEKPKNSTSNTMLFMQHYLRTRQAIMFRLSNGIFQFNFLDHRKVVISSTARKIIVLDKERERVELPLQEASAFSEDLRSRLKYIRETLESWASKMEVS
The assay is described as above.

Assay [4] addresses T3, Clp1aa.1-371, GAL4 DNA binding domain fusion (S. pombe) (UniProt Q9P7H1).
T3 sequence: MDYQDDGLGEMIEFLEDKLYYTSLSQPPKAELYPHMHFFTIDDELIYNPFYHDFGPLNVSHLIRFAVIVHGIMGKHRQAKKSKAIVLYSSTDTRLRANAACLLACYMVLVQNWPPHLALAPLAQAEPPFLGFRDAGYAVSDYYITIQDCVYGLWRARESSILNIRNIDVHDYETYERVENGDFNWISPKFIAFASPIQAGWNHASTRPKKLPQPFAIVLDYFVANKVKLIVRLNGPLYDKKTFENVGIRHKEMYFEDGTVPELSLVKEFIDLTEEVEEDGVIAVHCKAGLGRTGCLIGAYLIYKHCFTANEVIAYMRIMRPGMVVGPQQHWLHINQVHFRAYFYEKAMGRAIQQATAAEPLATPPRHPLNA
Nature of the assay: two-hybrid; bait Clp1p fused to GAL4 DNA binding domain, prey ESCRT proteins fused to GAL4 transcription activation domain; budding yeast with GAL4-galactosidase readout; X-gal overlay; interaction read from the lack of transcriptional readout of the auto-activating bait Clp1aa.1-371.

B1: FIP3-GFP (protein, UniProt O75154 1-756)
chain: MASAPPASPPGSEPPGPDPEPGGPDGPGAAQLAPGPAELRLGAPVGGPDPQSPGLDEPAPGAAADGGARWSAGPAPGLEGGPRDPGPSAPPPRSGPRGQLASPDAPGPGPRSEAPLPELDPLFSWTEEPEECGPASCPESAPFRLQGSSSSHRARGEVDVFSPFPAPTAGELALEQGPGSPPQPSDLSQTHPLPSEPVGSQEDGPRLRAVFDALDGDGDGFVRIEDFIQFATVYGAEQVKDLTKYLDPSGLGVISFEDFYQGITAIRNGDPDGQCYGGVASAQDEEPLACPDEFDDFVTYEANEVTDSAYMGSESTYSECETFTDEDTSTLVHPELQPEGDADSAGGSAVPSECLDAMEEPDHGALLLLPGRPHPHGQSVITVIGGEEHFEDYGEGSEAELSPETLCNGQLGCSDPAFLTPSPTKRLSSKKVARYLHQSGALTMEALEDPSPELMEGPEEDIADKVVFLERRVLELEKDTAATGEQHSRLRQENLQLVHRANALEEQLKEQELRACEMVLEETRRQKELLCKMEREKSIEIENLQTRLQQLDEENSELRSCTPCLKANIERLEEEKQKLLDEIESLTLRLSEEQENKRRMGDRLSHERHQFQRDKEATQELIEDLRKQLEHLQLLKLEAEQRRGRSSSMGLQEYHSRARESELEQEVRRLKQDNRNLKEQNEELNGQIITLSIQGAKSLFSTAFSESLAAEISSVSRDELMEAIQKQEEINFRLQDYIDRIIVAIMETNPSILEVK
For the molecule B1, in assay [1], the binding result is given as “no binding”.

B2: Vps20p (ESCRT-III), GAL4 transcription activation domain fusion (protein, UniProt O94318 1-226)
chain: MGVNSSKINDKDRSILSIKEQRDKLLRYSKRLEKIEQLEIDIARKCLRDSDKRGALRALKAKKLYSGLITQTYGQLGNIEQLLSTIEFTLIQKDVMFGLQEGTNLIRQLQADMPLERVGRICNDRDEAMSYVDEVNDMLQGRMSRDQEDEIQEELDSLIREQEDEKVKDLEKPGFTPSTGVDVLPSVPLKNAIPSLDESFPKAASVSNTSSAVVIDEELRKDPVLG
Turning to B2, the binding result in assay [2] was “no binding”; in assay [3], “binds”; in assay [4], “no binding”.
